# Experimental data: PubChem BioAssay AID686978 (National Center for Advancing Translational Sciences (NCATS), 2013)
# Several values for one entry are separate records, joined by “and”; a condition that tells them apart may be missing. Identical values can stand only once. The whole screen tested about 420,000 compounds, of which about 64,000 (15%) were called active. The shares of active, inactive and inconclusive entries below differ from those in the screen. Calls come from the whole dose curve; as a rule, active = well fitted inhibition curve with a large enough effect; inconclusive = small, poorly fitted or top-dose-only effect; inactive = flat fitted curve, though single readings scatter. No potency is given beside an inconclusive call; the fits are too rough.
# Test: qHTS for Inhibitors of human tyrosyl-DNA phosphodiesterase 1 (TDP1): qHTS in cells in absence of CPT; note: nearly all actives have a fitted effect of over 55% in size
# Conditions: DT40 Tdp1-/- hTDP1 cells, no CPT, ATP luminescence, 48 h; activity change, negative = growth inhibition: at 46.2 µM (top of the series) unless noted
# In short: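 Cells were dispensed at 400 per well, compounds added by pin tool, plates incubated ≥48 hr at 37 °C, then CellTiter-Glo added for 30 min at room temperature before luminescence reading. Line: DT40 Tdp1-/- complemented with hTDP1; camptothecin omitted.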
# % is set by controls: 0 for no effect and ±100 for the full control effect; potency is the fitted concentration of half-maximal effect; tags give direction and shape of the fitted curve.
Structure (SMILES),Potency,"activity change, negative = growth inhibition"
CCOC(=O)COc1cccc2c(=O)n(CC(=O)N3CCCc4ccccc43)ccc12,"inconclusive [inhibitor, single point]",–
O=C(Nc1nccs1)OCc1ccccc1,–,inactive: 7.57%
CC1CCCN(c2sc(S(C)(=O)=O)nc2S(=O)(=O)c2ccc(Cl)cc2)C1 (stereo not drawn),"inconclusive [inhibitor, partial curve]",–
C#CC[N+]1(CC#Cc2ccccc2)CCCCC1,active: 16.4 µM,–
Clc1c(CSc2nc3ccccc3o2)nc2ccccn12,"inconclusive [inhibitor, single point]",–
COC(=O)c1c(NC(=O)C2=COCCO2)sc(C)c1C,"inconclusive [inhibitor, single point]",–
CN(C)c1nc(Oc2ccc(OCCOc3ccccc3)nn2)nc(N(C)C)n1,"inconclusive [inhibitor, partial curve, poor fit]",–
Cc1ccc(N(Cc2ccco2)C(=O)c2ccc(N3CCCCC3)c([N+](=O)[O-])c2)cc1,active: 5.8 µM,–
CSCCC(NC(=O)c1ccco1)C(=O)Nc1cc(C)ccn1 (stereo not drawn),–,inactive: -5.59%
CC(=O)c1ccc(NC(=O)C2CCCN(S(=O)(=O)c3cn(C)cn3)C2)cc1 (stereo not drawn),–,inactive: -13.1%
CCOC(=O)c1c(C)oc2ccc(O)c(CN(C)C)c12,"inconclusive [inhibitor, single point]",–
COc1ccc(OC)c2[nH]c(=O)c(CCNC(=O)CC(C)C)cc12,"inconclusive [inhibitor, single point]",–
Nc1nc2ccccc2n1C(=O)c1ccc(F)cc1,active: 18.4 µM,–
Cc1ccc(NC(=O)C2CCCN(c3nnc(C)c4c(C)n(-c5ccccc5)nc34)C2)cc1Cl (stereo not drawn),active: 4.11 µM,–
CCOC(=O)c1cc2c(=O)n3ccccc3nc2n(Cc2ccco2)c1=NC(=O)c1ccccc1OC,active: 18.4 µM and active: 13 µM,–
COc1ccc(CCNC(=O)COC(=O)/C=C/c2ccc(OC)cc2OC)cc1,"inconclusive [inhibitor, single point]",–
O=C(CSc1nccn1-c1ccccc1)N1CCc2ccccc21,–,inactive: -20.9%
Cc1c2cnn(CC(=O)Nc3ccc(F)cc3F)c(=O)c2c(C)n1Cc1cccc(Cl)c1,"inconclusive [inhibitor, single point]",–
CC(=O)NCc1ccc(-c2nc3ccccc3s2)cc1,"inconclusive [inhibitor, single point]",–
C=CCn1c(=O)c(C(=O)NCc2ccc3c(c2)OCO3)c(O)c2ccccc21,"inconclusive [inhibitor, single point]",–
C=CCN(CC=C)C(=O)c1ccccc1NC(=O)c1ccccc1C,"inconclusive [inhibitor, single point]",–
O=C(NC1CCN(Cc2ccccc2)CC1)c1ccc2c(c1)[nH]c(=O)n2Cc1ccc(F)cc1,"inconclusive [inhibitor, single point]",–
CCOc1ccc(Nc2ccc([N+](=O)[O-])c3nonc23)cc1,active: 23.1 µM,–
Cc1ccc(NC(=O)Cn2c([N+](=O)[O-])cnc2C)cc1Cl,–,inactive: -11.6%
COc1cccc(/C=N/NC(=O)CN2C(=O)NC3NC(=O)NC32)c1 (stereo not drawn),–,inactive: -6.65%

Structure (SMILES),Potency,"activity change, negative = growth inhibition"
COc1cc(C(=O)NCCC2=CCCCC2)ccc1OCc1c(C)noc1C,–,inactive: -18.1%
O=C(Cn1c(=O)n(-c2ccc(F)cc2)c(=O)c2sccc21)Nc1cccc(C(F)(F)F)c1,"inconclusive [inhibitor, single point]",–
c1ccc(-c2cc(N3CCOCC3)nc(-c3ccccc3)n2)cc1,"inconclusive [inhibitor, single point]",–
Cc1ccc(S(C)(=O)=O)cc1C(=O)OCC(=O)N(Cc1ccccc1)Cc1ccccc1,active: 16.4 µM,–
CN(C)C(CNC(=O)c1cc(S(=O)(=O)N2CCOCC2)ccc1Cl)c1cccs1 (stereo not drawn),active: 20.6 µM,–
COc1ccc(Cc2nc3ccc(C(=O)N4CCCC4)cc3o2)cc1OC,active: 20.6 µM,–
Cc1cc2c(sc3ccccc32)c(C)n1,"inconclusive [inhibitor, single point]",–
O=S1(=O)N=C(Nc2ccc(O)c(CN3CCCCC3)c2)c2ccccc21,–,inactive: -17.1%
O=C(Nc1ccccc1)Nc1ccc(Cl)c([N+](=O)[O-])c1,–,inactive: -14.8%
COc1ccc(Cn2c(C(=O)O)c(CNCCc3ccccc3Cl)c3ccc(C)cc32)cc1,"inconclusive [inhibitor, single point]",–
O=C(NC1CCCCCC1)C1CCCN1S(=O)(=O)c1cccc2cccnc12 (stereo not drawn),"inconclusive [inhibitor, partial curve]",–
CC(/C=N\Nc1nnc2c(n1)[nH]c1c(C)cccc12)=C\c1ccco1,active: 10.3 µM,–
COc1cc(OC)c(NC(=S)Nc2cc(Cl)cc(Cl)c2)cc1Cl,"inconclusive [inhibitor, single point]",–
Cn1c(O)c(N=NC(=O)Cn2c(C(F)(F)F)nc3ccccc32)c2ccccc21,active: 13 µM,–
CCCSc1ccc([C@H]2N[C@@](CC(C)C)(C(=O)OC)[C@H]3C(=O)N(C)C(=O)[C@@H]23)cc1,"inconclusive [inhibitor, single point]",–
COc1cc(C(=S)N2CCN(C(c3ccccc3)c3ccccc3)CC2)cc(OC)c1O,active: 8.2 µM,–
Cc1nc(SCC#N)c2c(C)c(C)sc2n1,–,inconclusive: -34.5% [inhibitor]
COc1cccc(NC(=O)N2CCCc3ccccc32)c1,–,inactive: 14.7%
Cc1cc(C)cc(OCC(=O)Nc2ccc3c4c(cccc24)CC3)c1,–,inconclusive: -36.6% [inhibitor]
CC(NC(=O)Cc1ccccc1)c1cc2c(cc1Br)OCCCO2 (stereo not drawn),"inconclusive [inhibitor, single point]",–
Cc1ccc(Nc2nnc(SC(C)C(=O)NCC3CCCO3)s2)cc1C (stereo not drawn),"inconclusive [inhibitor, single point]",–
COc1ccc(-c2nc3ccc(C)cn3c2NCc2ccc3c(c2)OCO3)cc1,"inconclusive [inhibitor, single point]",–
O=C(NNC(=O)c1csc(-c2cccnc2)n1)c1ccccc1,–,inactive: -16.3%
CC(C)NC(=O)c1cc2c(Cl)nc3ccccc3c2s1,"inconclusive [inhibitor, single point]",–
CCOC(=O)c1[nH]c(C)c(C(=O)Nc2ccc(C)c(Cl)c2)c1C,"inconclusive [inhibitor, partial curve, poor fit]",–

Structure (SMILES),Potency,"activity change, negative = growth inhibition"
O=S1(=O)CC(N2CCN(CC3CC3)CC2)CN1CCc1ccccc1 (stereo not drawn),"inconclusive [inhibitor, partial curve]",–
Cc1c(CBr)[n+](=O)c2c(n1[O-])C(Br)CCC2Br (stereo not drawn),"inconclusive [inhibitor, full curve, poor fit]",–
O=C1C(Oc2ccccc2)C(c2ccc3c(c2)OCO3)N1CCc1ccc(F)cc1 (stereo not drawn),"inconclusive [inhibitor, partial curve, poor fit]",–
O=C(NCc1cccnc1)C12CC3CC(CC(C3)C1)C2,–,inactive: -20.2%
CCCN1CNc2c(c(=O)[nH]c(=S)n2CCc2cc(C)ccc2C)C1,active: 12.6 µM,–
Cc1c(C(=O)N2CCOCC2)sc(NC(=O)CCl)c1C#N,active: 11.6 µM,–
Cc1cc(O)c(C(=O)c2cnc3c(c2)COc2ccccc2-3)cc1Cl,"inconclusive [inhibitor, single point]",–
CCOC(=O)[C@]12CCCC=C1N(Cc1ccccc1)C(=O)[C@H](CC(=O)NCCc1ccccc1OC)C2,active: 13 µM,–
CC12CCC(O)CC1=CCC1C2CCC2(C)C3=NN=CC3CC12 (stereo not drawn),–,inconclusive: -34.4% [inhibitor]
CCc1ccn2cc(-c3ccc4c(c3)OCO4)nc2c1,"inconclusive [inhibitor, partial curve]",–
O=C(c1ccc(C#CC2(O)CCCCC2)cc1)N1CCN(C(c2ccccc2)c2ccccc2)CC1,"inconclusive [inhibitor, single point]",–
Cc1cccc(NC(=O)Nc2c(C)n(C)n(-c3ccccc3)c2=O)c1C,–,inactive: 9.04%
CCn1c(=O)c([N+](=O)[O-])c(NCCc2ccccc2)c2ccccc21,"inconclusive [inhibitor, single point]",–
CCSc1nc(=S)cc(C)[nH]1,active: 20.6 µM,–
CCCCNC(=S)NNC(=O)c1nn(C)c(C)c1Cl,–,inactive: -18.2%
Cc1cccc(NC(=O)/C(C#N)=C/c2cn(CC(=O)NCc3ccco3)c3ccccc23)c1C,"inconclusive [inhibitor, single point]",–
Cc1oc(-c2ccccc2NC(=O)C2CCCO2)nc1CNC(=O)c1[nH]c2c(C)ccc(C)c2c1C (stereo not drawn),"inconclusive [inhibitor, single point]",–
COC(=O)CN1C(=S)N(c2ccc(OC)cc2)C(=O)/C1=C/c1ccc(OC)cc1,"inconclusive [inhibitor, single point]",–
O=C(COC(=O)c1cc(Cl)ccc1O)c1ccc2c(c1)OCO2,"inconclusive [inhibitor, single point]",–
Cc1ccc(Cl)cc1NC(=O)Cn1c(=O)n(CCC(=O)N2CCc3ccccc3C2)c(=O)c2ccccc21,"inconclusive [inhibitor, partial curve]",–
CCOC(=O)c1ccccc1NC(=O)Cc1ccccc1OC,–,inactive: -15%
CCC1(C)Cc2ccccc2/C(=C/C(=O)N2CCCCC2)N1 (stereo not drawn),active: 20.6 µM,–
Nn1c(Cc2cccc3ccccc23)nnc1SCc1ccccc1,"inconclusive [inhibitor, single point]",–
